Measured values from PubChem BioAssay AID1645882 (National Center for Advancing Translational Sciences (NCATS), 2021).
Hit rate of the full screen: of about 16,000 compounds, about 120 (0.75%) were called active. Inconclusive results (about 4%) are left out. Calls follow the shape of the dose curve; as a rule, active = well fitted inhibition curve with a large enough effect; inconclusive = small, poorly fitted or top-dose-only effect; inactive = no such curve, though single readings can be large or run the other way. Some of the results follow.

These compounds were tested against Rap guanine nucleotide exchange factor 3 (Homo sapiens) (UniProt O95398) (assay: Validation qHTS for antagonist of cAMP-regulated guanine nucleotide exchange factor 3 (EPAC1)). Settings: EPAC1 Rap1B-BODIPY-GDP exchange, fluorescence; series mostly up to 150 µM; activity change, negative = inhibition: at the top concentration.
Sequence of UniProt O95398 (O95398 whole entry, looked up): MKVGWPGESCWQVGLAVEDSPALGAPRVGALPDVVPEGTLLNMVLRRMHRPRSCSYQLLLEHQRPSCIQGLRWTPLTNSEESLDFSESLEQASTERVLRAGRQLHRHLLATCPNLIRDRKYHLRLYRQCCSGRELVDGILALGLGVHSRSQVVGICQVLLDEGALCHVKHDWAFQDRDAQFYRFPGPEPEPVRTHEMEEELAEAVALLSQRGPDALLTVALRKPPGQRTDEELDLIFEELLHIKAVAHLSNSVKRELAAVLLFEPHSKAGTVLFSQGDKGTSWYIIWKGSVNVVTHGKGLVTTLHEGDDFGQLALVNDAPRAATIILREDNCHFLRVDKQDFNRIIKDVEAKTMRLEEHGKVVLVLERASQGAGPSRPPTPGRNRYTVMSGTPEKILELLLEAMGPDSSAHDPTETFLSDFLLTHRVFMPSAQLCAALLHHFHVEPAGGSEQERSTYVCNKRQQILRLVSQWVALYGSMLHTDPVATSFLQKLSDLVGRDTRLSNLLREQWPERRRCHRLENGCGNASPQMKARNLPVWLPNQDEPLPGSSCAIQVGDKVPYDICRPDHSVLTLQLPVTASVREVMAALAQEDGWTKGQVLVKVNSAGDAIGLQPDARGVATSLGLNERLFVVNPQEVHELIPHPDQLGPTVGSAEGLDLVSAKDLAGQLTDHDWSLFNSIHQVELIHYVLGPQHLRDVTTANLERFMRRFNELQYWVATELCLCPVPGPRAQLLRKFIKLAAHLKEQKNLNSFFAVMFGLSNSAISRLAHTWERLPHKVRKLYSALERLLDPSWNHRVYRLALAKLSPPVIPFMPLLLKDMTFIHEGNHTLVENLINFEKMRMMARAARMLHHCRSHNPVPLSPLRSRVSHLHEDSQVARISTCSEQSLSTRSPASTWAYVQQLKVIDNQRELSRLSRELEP
How it was run: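 EPAC1 (100 nM) mixed with 250 nM RAP1B-BODIPY-GDP and 50 uM GDP; compounds in concentration series, 5 min at room temperature. Fluorescence (ex 480/em 540 nm) read every 5 min for 30 min; normalized to ATA control and DMSO.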
Also: nearly all actives have a fitted effect of over 75% in size.

Activity change, negative = inhibition, inactive:
C=C1CC/C=C(\C)CC[C@@H]2[C@@H]1CC2(C)C 8.41%
O=C(c1cc(C(F)(F)F)cc(C(F)(F)F)c1)N1CCC2(CC1)CCN(c1ccncc1)CC2 16.8%
Cc1cccc(CNc2nc(-c3ccc4c(c3)OCO4)nc3ccccc23)c1 -0.721%
CC(C)OC(=O)C(C)(C)Oc1ccc(C(=O)c2ccc(Cl)cc2)cc1
COc1ccccc1-c1oc2ccccc2c(=O)c1O 1.62%
Cc1cc(C(=O)N(Cc2cc3cc4c(cc3nc2N2CCOCC2)CCC4)CC2CCCO2)c(=O)[nH]c1C (stereo not given) -10.9%
CCNC(=O)[C@H]1O[C@H](n2cnc3c(N)nc(NCCc4ccc(CCC(=O)O)cc4)nc32)[C@@H](O)[C@@H]1O 13.2%
CN(C(=O)c1cnn(-c2nccc(-c3ccccc3C(F)(F)F)n2)c1C1CC1)C1CCOC1 (stereo not given) 9.74%
Cc1nc2cnc(N3CCN(C)CC3)nc2n(Cc2cccs2)c1=O 0.735%
COC(=O)c1cc(CNC(=O)c2ccccn2)cc(NC(=O)c2ccccc2OC)c1 16.2%
C/C=C1\NC(=O)[C@H]2CSSCC/C=C/[C@H](CC(=O)N[C@H](C(C)C)C(=O)N2)OC(=O)C(C(C)C)NC1=O (stereo not given in full) 1.87%
CC1=C(C(=O)OC(C)C)[C@@H](c2cccc3nonc23)C([N+](=O)[O-])=C(C)N1 -19.5%
C[C@@H](CCc1ccc(O)cc1)NCCc1ccc(O)c(O)c1 14%
CCCC(=O)O[C@]1(C(=O)COC(=O)CC)[C@@H](C)C[C@H]2[C@@H]3CCC4=CC(=O)C=C[C@]4(C)[C@@]3(F)[C@@H](O)C[C@@]21C 5.75%
COc1cccc(Nc2ncc3nc(CCc4ccccc4)c(=O)n(C[C@H]4CCCO4)c3n2)c1 13.3%
COc1ncc2nc(-c3ccc(F)cc3)c(=O)n(Cc3ccc(F)cc3)c2n1 16.1%
CCOC(=O)[C@@H](C)N(C(=O)OC(C)(C)C)S(=O)(=O)N(Cc1ccccc1)[C@@H](C(=O)OC)C(C)C -6.25%
CO[C@]1(NC(=O)C(C(=O)O)c2ccc(O)cc2)C(=O)N2C(C(=O)O)=C(CSc3nnnn3C)COC21 (stereo not given in full) 10.8%
CC(=O)NCCNc1ccnc(-c2ccccc2C(F)(F)F)n1 4.28%
Cc1cc2c(s1)Nc1ccccc1N=C2N1CCN(C)CC1
CC1(C)O[C@H]2C[C@@H]3[C@H]4CCC5=CC(=O)C=C[C@]5(C)[C@@]4(F)[C@@H](O)C[C@]3(C)[C@]2(C(=O)CO)O1 15.9%
O=C(O)CC1CCCc2ccccc2C1O (stereo not given) 10.9% [at 75.8 µM]
CC(=O)OCC(=O)C1CCC2C3CCC4=CC(=O)CC[C@@]4(C)C3CC[C@]12C (stereo not given in full) 8.45%
Cc1cccc(CNc2ccnc(-c3ccc(C(=O)N(C)C)cc3)n2)c1 23.1%
FC(F)(F)c1ccccc1-c1nccc(-n2ccnc2)n1 15.6%
CCOC(=S)SSC(=S)OCC 18.5%
COCCn1c(=O)c(-c2ccc(Cl)cc2)nc2cnc(Nc3ccccc3)nc21 16.9%
Cc1ccc(CNc2nc(CN3CCN(C=O)CC3)nc3ccccc23)o1 17.8%
O=S(=O)(O)Oc1ccc(C(c2ccc(OS(=O)(=O)O)cc2)c2ccccn2)cc1 24.9%
CC[C@H]1OC(=O)[C@H](C)[C@@H](O[C@H]2C[C@@](C)(OC)[C@@H](O)[C@H](C)O2)C(C)[C@@H](O[C@@H]2O[C@H](C)C[C@H](N(C)C)[C@@H]2O)[C@](C)(OC)C[C@@H](C)C(=O)[C@H](C)[C@@H](O)[C@]1(C)O (stereo not given in full) -5.07%
Cc1nc2ccccc2nc1CN1CCOc2ccc(C3(O)CCN(c4ccccc4F)CC3)cc2C1 7.83%
O=C(c1ccco1)N1CCC2(CC1)CN(c1ccccn1)C2 5.99%
CCn1c(-c2cccc(OC)c2)nc2cc(NC(C)=O)cc(C(=O)N3CCC[C@H]3C(=O)OC)c21 17.2%
COC(=O)c1c(C)cc(OC)cc1O 12%
O=C1c2ccccc2C(=O)C1c1ccc(Br)cc1 -2.34%
NC(=O)CC[C@H](N)C(=O)O
COC(=O)CCC(=O)CN 14.5%
C[C@@H]1CCC(=O)N(C[C@@H](C)CSc2ccccc2)CC1 -1.52%
Clc1ccccc1CNCC1CCC(CNCc2ccccc2Cl)CC1 (stereo not given) -11.7%
C=C1CCC(C2CC(=O)OC2=O)C(=O)CCC2C1CC2(C)C (stereo not given) 0.371%
CCC(=O)N[C@@H]1Cc2ccccc2[C@@H](c2ccccc2)C1 -3.17%
CC1(C)S[C@@H]2[C@H](NC(=O)C3(N)CCCCC3)C(=O)N2[C@H]1C(=O)O 14%
O=C(O)c1cc(=O)c2c(Cl)cc(Cl)cc2[nH]1
CCC(=O)OCC(=O)[C@@]1(OC(=O)CC)[C@H](C)C[C@H]2[C@@H]3CCC4=CC(=O)C=C[C@]4(C)[C@@]3(F)[C@@H](O)C[C@@]21C -13.2%
COC(=O)N1CCC2(CC1)CCN(c1ccccn1)CC2 12.1%
Cc1nc2cnc(N3CCN(C)CC3)nc2n(Cc2ccc(F)cc2)c1=O -1.33%
COc1cc(C2=N/C(=C\c3ccccc3)C(=O)O2)cc(OC)c1OC 27.5%
C[C@@H]1CCC[C@H](C)N1 11.8% [at 75.8 µM]
Oc1cccc(O)c1 -4.68%
O=C(Nc1nccs1)[C@@H]1CC=C[C@@H]2CCN(C3CC3)C(=O)[C@@H]21 -17.4%
COc1cc2c(cc1O)-c1ccccc1CN(C)C2 1.4%
C[C@H]1CN(CCc2ccccc2)C(=O)[C@@H]1CC(=O)NCc1ccccc1 12.6%
COc1cccc(-c2cc(NCc3ccccc3OC)ncn2)c1 -19.1%
CCCCN(CCCC)CC(O)c1cc(Cl)cc2c1-c1ccc(Cl)cc1/C2=C/c1ccc(Cl)cc1 (stereo not given) 7.97%
COc1cc2[nH]c(C)c(CCN3CCN(c4ccccc4)CC3)c2cc1OC 25.8%
Cc1cc(O)cc(C)c1Cl
Cc1noc(C)c1-c1cc(Nc2ccccc2)ncn1 -0.685%
Cc1cccc(C)c1NC(=O)CN1CCCC1 7.75%
O=C(c1ccco1)N1CCC2(CC1)CCN(c1cccc(-c3ccccc3)c1)CC2 2.01%
CC(C)(C)c1ccc(S(=O)(=O)/C=C/C#N)cc1 8.47% [at 75.8 µM]
CN(C)Cc1ccccc1-c1cncnc1Nc1ccc(F)cc1 20.1%
CCNc1ncc2ncc(=O)n(CCc3ccccc3)c2n1 12.6%
COc1nccnc1NS(=O)(=O)c1ccc(N)cc1 309%
CC(N)CCCC(C)(C)O (stereo not given) 23.9%
Cn1cc(-c2nc3cnc(Oc4ccccc4)nc3n(C3CC3)c2=O)c2ccccc21 7.29%
CCCCC[C@H](O)/C=C/[C@@H]1[C@H]2C/C(=C/CCCC(=O)O)C[C@H]2C[C@H]1O 24.7%
COc1cccc(Nc2ncc3ncc(=O)n(Cc4ccc(F)cc4)c3n2)c1 15.5%
CCCOc1ccc2nc(NC(=O)OC)sc2c1 -3.51%
N#CCC(=O)NN 11.6%
CC(=C(CCOP(=O)(O)O)SC(=O)c1ccccc1)N(C=O)Cc1cnc(C)nc1N -3.25%
COc1ccc2cc(CN(C(=O)c3cc(C)nn3C)C3CC3)c(-c3ccc(Cl)cc3)nc2c1 -12%
O=[N+]([O-])c1ccc(CSc2ncnc3c2ncn3[C@@H]2O[C@H](CO)[C@@H](O)[C@H]2O)cc1 -10.5% [at 75.8 µM]
CNC[C@@H](O)[C@@H](O)[C@H](O)[C@H](O)CO 12.4%
O=Nc1ccc2oc(=O)ccc2c1 6.91% [at 75.8 µM]
CC[C@H]1OC(=O)[C@H](C)[C@@H](O[C@H]2C[C@@](C)(OC)[C@@H](O)[C@H](C)O2)[C@H](C)[C@@H](O[C@@H]2O[C@H](C)C[C@H](N(C)C)[C@H]2O)[C@](C)(O)C[C@H](C)C(=NOCOCCOC)[C@H](C)[C@@H](O)[C@]1(C)O 23.3%
O=S(=O)(c1ccccc1)N1CCC2(CCCN(Cc3ccncc3)C2)CC1 21.2%
O=C(O)c1ccccc1S 27%
CN(C)c1ncc2nc(-c3cc(F)cc(F)c3)c(=O)n(CCC#N)c2n1 2.14%
COC(=O)N1CCC[C@@]2(CCN(c3ccccc3)C2)C1 -16.4%
C1CCc2nnnn2CC1
c1cncc(CNc2cc(-c3ccc4c(c3)OCO4)ncn2)c1 13.1%
Cn1cccc1C(=O)N1CCC[C@@]2(CCN(Cc3ccc(C#N)cc3)C2)C1 17.5%
CC1=C(C(=O)O)N2C(=O)C(NC(=O)C(N)c3ccccc3)C2SC1 (stereo not given) 20.7%
CN(C(Cc1ccc(OS(=O)(=O)c2cccc3cnccc23)cc1)C(=O)N1CCN(c2ccccc2)CC1)S(=O)(=O)c1cccc2cnccc12 (stereo not given) 42.8%
Cc1cnc(CNc2ccnc(-c3cccc(C#N)c3)n2)cn1 3.35%
COc1ccccc1CN1CCCC2(CCN(C(=O)c3cccn3C)CC2)C1 15%
COc1cccc(Cn2c(=O)c(-c3ccccc3)nc3cncnc32)c1 -3.33%
COc1ccc(/C=C/C(=O)/C=C/c2ccc(OC)cc2OC)c(OC)c1 11.3%
C[S+](C)CCC(N)C(=O)O (stereo not given) -15.2%
COc1cc(=O)n2c(c1C(=O)N(C)Cc1nonc1C)CCN(C(=O)c1ccc(C)c(C)c1)CC2 16.8%
Cc1ccc2ccccc2n1 20.8%
Cc1[nH]c(=O)c(C#N)cc1-c1ccc2nccn2c1
COc1ccc2[nH]cc(CCNc3cc(-c4cccc(C#N)c4)ncn3)c2c1 -24.4%
CN(C)c1ncc2nc(-c3ccc(Cl)cc3)c(=O)n(C[C@H]3CCCO3)c2n1 1.16%
Cc1cc2nccc(C)c2cc1C -14.1%
CC(=O)O[C@H]1C(=O)[C@@]2(C)[C@H]([C@H](OC(=O)c3ccccc3)[C@]3(O)C[C@H](OC(=O)[C@H](O)[C@@H](NC(=O)c4ccccc4)c4ccccc4)C(C)=C1C3(C)C)[C@]1(OC(C)=O)CO[C@@H]1C[C@@H]2O
CCn1c(-c2ccccc2F)nc2cc(NC(C)=O)cc(C(=O)N(C)Cc3c(C)nc4ccccn34)c21 8.89%
CS(=O)(=O)N1CCC[C@@]2(CCN(Cc3nccs3)C2)C1 11.9%
CC(=O)[O][Al][O]C(C)=O 3.89%
O=C(Nc1ccccc1)N1CC2(CCN(S(=O)(=O)c3ccccc3)CC2)C1 4.86%
